# Assay results reported in a collection of fitness landscapes (doi:10.1126/science.1257360).
# The list shows a part of the results.
# B1: PhoQ; a variant is named by its letters at X, in order, P23837 (parent)
# chain: MKKLLRLFFPLSLRVRFLLATAAVVLVLSLAYGMVALIGYSVSFDKTTFRLLRGESNLFYTLAKWENNKLHVELPENIDKQSPTMTLIYDENGQLLWAQRDVPWLMKMIQPDWLKSNGFHEIEADVNDTSLLLSGDHSIQQQLQEVREDDDDAEMTHSVAVNVYPATSRMPKLTIVVVDTIPVELKSSYMVWSWFIYVLSANLLLVIPLLWVAAWWSLRPIEALAKEVRELEEHNRELLNPATTRELTSLVRNLNRLLKSERERYDKYRTTLTDLTHSLKTPLXXLQXXLRSLRSEKMSVSDAEPVMLEQISRISQQIGYYLHRASMRGGTLLSRELHPVAPLLDNLTSALNKVYQRKGVNISLDISPEISFVGEQNDFVEVMGNVLDNACKYCLEFVEISARQTDEHLYIVVEDDGPGIPLSKREVIFDRGQRVDTLRPGQGVGLAVAREITEQYEGKIVAGESMLGGARMEVIFGRQHSAPKDE
# Variants of: B1
# Assay: enrichment ratio after two sorts for PhoP signalling (ratio (wild type AVST 3.29)); higher = more functional
# Details: with PhoP (E. coli)
row,Variant,enrichment ratio
1,MNTS,≤ 0.25
2,GWHN,≤ 0.25
3,PLNY,≤ 0.25
4,YVMK,≤ 0.25
5,HWLM,≤ 0.25
6,NDSV,≤ 0.25
7,NVEP,≤ 0.25
8,GNNE,≤ 0.25
9,MQAT,8.41
10,DQDK,≤ 0.25
11,RMYV,≤ 0.25
12,HHYE,≤ 0.25
13,LQKK,≤ 0.25
14,SMDW,≤ 0.25
15,QQAD,≤ 0.25
16,HEWT,≤ 0.25
17,PWSY,≤ 0.25
18,SVPA,≤ 0.25
19,QDQH,≤ 0.25
20,KSYA,≤ 0.25
21,SEGD,1.88
22,KGKV,≤ 0.25
23,MFPW,≤ 0.25
24,GWVR,≤ 0.25

row,Variant,enrichment ratio
1,HSIA,≤ 0.25
2,AHEY,≤ 0.25
3,KVSG,≤ 0.25
4,PPSQ,≤ 0.25
5,NWSH,≤ 0.25
6,WGPM,≤ 0.25
7,GLYY,≤ 0.25
8,FVID,≤ 0.25
9,GTKG,≤ 0.25
10,AKYN,≤ 0.25
11,RVMK,≤ 0.25
12,QDTG,≤ 0.25
13,THDD,≤ 0.25
14,CSMF,≤ 0.25
15,WGCP,≤ 0.25
16,MGYF,12.2
17,GILW,≤ 0.25
18,VDWR,≤ 0.25
19,EEDM,≤ 0.25
20,FYEM,≤ 0.25
21,GCPQ,≤ 0.25
22,YWMG,≤ 0.25
23,PSWA,≤ 0.25
24,IMCF,≤ 0.25

row,Variant,enrichment ratio
1,HFIN,≤ 0.25
2,SCAG,4.96
3,KQSH,≤ 0.25
4,MYGF,≤ 0.25
5,QYRL,≤ 0.25
6,VRGD,≤ 0.25
7,FAFS,≤ 0.25
8,QYTK,≤ 0.25
9,RILR,≤ 0.25
10,VQDC,≤ 0.25
11,MQED,≤ 0.25
12,LEGQ,≤ 0.25
13,ICQN,≤ 0.25
14,MPFS,≤ 0.25
15,DDND,≤ 0.25
16,QHDI,19.6
17,FFEH,≤ 0.25
18,EYMH,≤ 0.25
19,FSTA,≤ 0.25
20,GIVK,8.57
21,IKDY,≤ 0.25
22,TSYL,10.5
23,DAVD,≤ 0.25
24,QPVN,≤ 0.25

row,Variant,enrichment ratio
1,ASSK,≤ 0.25
2,MKRN,≤ 0.25
3,YHLF,≤ 0.25
4,PITW,≤ 0.25
5,GYGW,≤ 0.25
6,RDCR,≤ 0.25
7,TPEQ,≤ 0.25
8,RHRC,≤ 0.25
9,FGAG,≤ 0.25
10,RSNW,≤ 0.25
11,HVRD,≤ 0.25
12,GVFQ,≤ 0.25
13,WPFP,≤ 0.25
14,NFMP,≤ 0.25
15,LALA,0.957
16,GHHD,≤ 0.25
17,RRVE,≤ 0.25
18,WHLL,≤ 0.25
19,HTGT,≤ 0.25
20,YIVS,≤ 0.25
21,GHNG,≤ 0.25
22,TQSM,23.3
23,QYTF,≤ 0.25
24,KIFW,≤ 0.25

row,Variant,enrichment ratio
1,AQIS,13
2,HEAM,≤ 0.25
3,PVSQ,≤ 0.25
4,YNTT,≤ 0.25
5,FEGK,≤ 0.25
6,EVPG,≤ 0.25
7,IGLI,10.5
8,NAEK,≤ 0.25
9,HWLY,≤ 0.25
10,PAWA,≤ 0.25
11,SCAN,8.05
12,WCDL,≤ 0.25
13,YQNV,≤ 0.25
14,GIWV,≤ 0.25
15,MNSC,≤ 0.25
16,GMWE,≤ 0.25
17,MAAH,0.686
18,EYVC,≤ 0.25
19,GSRW,≤ 0.25
20,YGCG,≤ 0.25
21,LDDT,≤ 0.25
22,SHII,≤ 0.25
23,AWAM,≤ 0.25
24,YVQW,≤ 0.25

row,Variant,enrichment ratio
1,TQKC,≤ 0.25
2,DQAQ,≤ 0.25
3,PPAI,≤ 0.25
4,HNAI,4.72
5,FERE,≤ 0.25
6,WANP,≤ 0.25
7,LMNF,≤ 0.25
8,THLP,≤ 0.25
9,RGNI,≤ 0.25
10,KNRG,≤ 0.25
11,YKAH,≤ 0.25
12,YPME,≤ 0.25
13,VIRL,≤ 0.25
14,AWYK,≤ 0.25
15,VFTY,≤ 0.25
16,MHYM,≤ 0.25
17,HWMQ,≤ 0.25
18,GPKE,≤ 0.25
19,FHKF,≤ 0.25
20,DQKH,≤ 0.25
21,NCMW,≤ 0.25
22,DWVR,≤ 0.25
23,YFNW,≤ 0.25
24,YMIG,≤ 0.25

row,Variant,enrichment ratio
1,AARN,≤ 0.25
2,GFIS,≤ 0.25
3,LSVS,≤ 0.25
4,MLVK,≤ 0.25
5,VIPP,≤ 0.25
6,EATI,≤ 0.25
7,DAAA,≤ 0.25
8,YNSP,≤ 0.25
9,SHDM,≤ 0.25
10,TWRF,≤ 0.25
11,SAIH,2.91
12,QPES,≤ 0.25
13,KCSS,≤ 0.25
14,NYRE,≤ 0.25
15,ETMA,≤ 0.25
16,RGNG,≤ 0.25
17,MSHY,6.3
18,PIGA,≤ 0.25
19,VFPR,≤ 0.25
20,GTRP,≤ 0.25
21,QDDI,≤ 0.25
22,FYVH,≤ 0.25
23,TECH,27.7
24,NRHN,≤ 0.25

row,Variant,enrichment ratio
1,GGIG,≤ 0.25
2,VKAL,≤ 0.25
3,GKGR,≤ 0.25
4,NDPT,≤ 0.25
5,KIMT,≤ 0.25
6,NCRS,≤ 0.25
7,PEYF,≤ 0.25
8,LSFW,≤ 0.25
9,EIQF,≤ 0.25
10,DLPE,≤ 0.25
11,CFLN,≤ 0.25
12,QYIY,≤ 0.25
13,RYTW,≤ 0.25
14,GGMI,12.3
15,DLEV,≤ 0.25
16,LPIL,≤ 0.25
17,ITSQ,≤ 0.25
18,WPSI,≤ 0.25
19,PGQA,≤ 0.25
20,MIFR,≤ 0.25
21,IISK,≤ 0.25
22,ESIL,≤ 0.25
23,DLGK,≤ 0.25
24,QETR,≤ 0.25

row,Variant,enrichment ratio
1,AQEN,≤ 0.25
2,AAPD,≤ 0.25
3,RFDN,≤ 0.25
4,HFRV,≤ 0.25
5,VNHK,≤ 0.25
6,KGTS,≤ 0.25
7,IFAT,≤ 0.25
8,YTDE,≤ 0.25
9,GYTD,≤ 0.25
10,QKIR,≤ 0.25
11,VWEL,≤ 0.25
12,RTWV,≤ 0.25
13,AMWL,≤ 0.25
14,WPFT,≤ 0.25
15,TCSR,5.34
16,SPYP,≤ 0.25
17,YVYC,≤ 0.25
18,QSMS,≤ 0.25
19,RCVE,≤ 0.25
20,VGAQ,≤ 0.25
21,MHMD,≤ 0.25
22,TNET,4.23
23,NRRR,≤ 0.25
24,HRQS,≤ 0.25

row,Variant,enrichment ratio
1,TMQK,≤ 0.25
2,QMQL,≤ 0.25
3,VRSE,≤ 0.25
4,YHDS,≤ 0.25
5,FETK,≤ 0.25
6,ALYH,≤ 0.25
7,DKHS,≤ 0.25
8,LDFF,≤ 0.25
9,PCDY,≤ 0.25
10,PWTH,≤ 0.25
11,YREW,≤ 0.25
12,IILY,≤ 0.25
13,DVMH,≤ 0.25
14,ILLY,≤ 0.25
15,IRVA,≤ 0.25
16,MPES,≤ 0.25
17,QLCH,≤ 0.25
18,KTWN,≤ 0.25
19,PAHF,≤ 0.25
20,ENWH,≤ 0.25
21,ETFH,≤ 0.25
22,RAAK,≤ 0.25
23,SIPM,19.8
24,TEGS,2.52

row,Variant,enrichment ratio
1,WSML,≤ 0.25
2,AHVA,≤ 0.25
3,GDQV,≤ 0.25
4,VFFN,≤ 0.25
5,SMQW,≤ 0.25
6,KFIF,≤ 0.25
7,SWQT,≤ 0.25
8,AWER,≤ 0.25
9,WKCL,≤ 0.25
10,QWML,≤ 0.25
11,AHRR,≤ 0.25
12,DVFV,≤ 0.25
13,AGGL,2.95
14,DPDD,≤ 0.25
15,IGSG,≤ 0.25
16,KSMP,≤ 0.25
17,EPLE,≤ 0.25
18,YWFM,≤ 0.25
19,EMIG,≤ 0.25
20,DLSQ,≤ 0.25
21,MFFV,≤ 0.25
22,SICG,22
23,HHNV,≤ 0.25
24,TPHG,≤ 0.25

row,Variant,enrichment ratio
1,HQCC,≤ 0.25
2,HFQW,≤ 0.25
3,NSFC,≤ 0.25
4,YTFA,≤ 0.25
5,VHHK,≤ 0.25
6,SQGY,0.654
7,AVNV,≤ 0.25
8,TDKW,≤ 0.25
9,DNVR,≤ 0.25
10,CCSI,≤ 0.25
11,VDWE,≤ 0.25
12,HQVK,≤ 0.25
13,MSKC,≤ 0.25
14,MFYQ,≤ 0.25
15,PVEH,≤ 0.25
16,MHAV,4.72
17,FMGH,≤ 0.25
18,MQAD,≤ 0.25
19,YNGW,≤ 0.25
20,STIC,13
21,RECD,≤ 0.25
22,KNCT,≤ 0.25
23,RHQL,≤ 0.25
24,ICVH,≤ 0.25

row,Variant,enrichment ratio
1,EISS,≤ 0.25
2,IVPP,≤ 0.25
3,MKKF,≤ 0.25
4,SFVK,≤ 0.25
5,NTPD,≤ 0.25
6,KNAI,≤ 0.25
7,TWYH,≤ 0.25
8,VQWH,≤ 0.25
9,WDDN,≤ 0.25
10,VLNL,≤ 0.25
11,FKVG,2.64
12,DWHI,≤ 0.25
13,GANK,≤ 0.25
14,HNFI,≤ 0.25
15,RYCE,≤ 0.25
16,NMTS,≤ 0.25
17,THRQ,≤ 0.25
18,ETNS,≤ 0.25
